From paper PMC12136788 come the findings set out here.

B1: chr6:73641827:73641929:-|CDS|ENSG00000119899|unk|FALSE|unique (ssRNA)
RNA: GGGAGUUCUACAGUCCGACGAUCGAGAAAAGAGCUGCUCUGUGAAGGUCUUAAAGGAUUGUUUUAUUCUUUUCUGAUUUUUGUAGGGUAAGAAGUACCAAUGGGAUGCAGAAACUCAAGGAUGGAUUCUCGGUUCCUUUUUUUCAACAGAGGAUUGAGCAUCA
B2: ENSG00000070961:be:win_101|CDS|ENSG00000070961|bound_else_gene|NA|bound_elsewhere_windowed (ssRNA)
RNA: GGGAGUUCUACAGUCCGACGAUCUGCGGGCUCUCAUGGAGCUCAGGUCCACAGAUGCAUUACGAAAAAUACAGGAAAGCUAUGGAGAUGUCUAUGGAAUUUGCACCAAAUUGAAAACAUCUCCCAAUGAAGGUUUAAGUGGAACAACAGAGGAUUGAGCAUCA
B3: chr1:183142599:183142700:+|CDS|ENSG00000135862|msi1|FALSE|unique (ssRNA)
RNA: GGGAGUUCUACAGUCCGACGAUCAACGAGAUUGAAGGCACCCUAAACAAAGCCAAAGAUGAAAUGAAGGUCAGCGAUCUUGAUAGGAAAGUGUCUGACCUGGAGAAUGAAGCCAAGAAGCAGGAGGCUGCCAUCAUGGACUAUCAACAGAGGAUUGAGCAUCA
B4: ENSG00000164609:stop:overlap|stop_codon|ENSG00000164609|stop_codon|NA|stop_codon (ssRNA)
RNA: GGGAGUUCUACAGUCCGACGAUCAGGCAUAUAGAAUGAAACGUCAGAGGCCAGAUGACCCCAUGGCCUCUUUCCUUGGACAGUAGCAACUAGUCAGAAGACCAUCCAAGAUAGAUGCAGCUGAUACAUUCUUUUCAGCUUCUUCAACAGAGGAUUGAGCAUCA
B5: chr7:80742675:80742739:-|3pUTR|ENSG00000075223|msi1_unk|FALSE|overlapping (ssRNA)
RNA: GGGAGUUCUACAGUCCGACGAUCGUAGCUUGACAAUUCAGUGACUUAAUAUCUAUUCCAUUUGUAUUGUACAUAAAAUUUUCUAGAAAUACACUUUUUUCCAAAGUGUAAGUUUGUGAAUAGAUUUUAGCAUGAUGAAACUGUCAACAGAGGAUUGAGCAUCA
B6: ENSG00000198589:be:win_651|CDS|ENSG00000198589|bound_else_gene|NA|bound_elsewhere_windowed (ssRNA)
RNA: GGGAGUUCUACAGUCCGACGAUCUGCAUUACCUCCUAUAGCCAAAUGGCCAUACCAGAAUGGUUUUACAUUUCAUACAUGGCUUAGAAUGGAUCCUGUAAAUAACAUCAAUGUAGAUAAGGAUAAACCAUAUUUGUAUUGUUUCAACAGAGGAUUGAGCAUCA

The other results are listed elsewhere or left out.

This assay concerns the target T1, UNK ZnF1-6 (called full-length) (human, UniProt Q9C0B0 30-357).
T1 sequence: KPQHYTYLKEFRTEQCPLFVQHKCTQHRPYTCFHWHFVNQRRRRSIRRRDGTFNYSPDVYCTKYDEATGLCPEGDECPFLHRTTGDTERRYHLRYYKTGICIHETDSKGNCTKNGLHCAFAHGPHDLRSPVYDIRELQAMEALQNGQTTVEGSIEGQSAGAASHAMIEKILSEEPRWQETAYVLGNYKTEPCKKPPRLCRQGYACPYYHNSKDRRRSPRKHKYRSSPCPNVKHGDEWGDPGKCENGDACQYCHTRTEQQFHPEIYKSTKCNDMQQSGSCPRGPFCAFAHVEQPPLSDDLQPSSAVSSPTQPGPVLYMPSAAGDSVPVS
The assay is described as follows: nsRBNS (natural sequence RNA bind-n-seq); RBNS binding buffer (assumed for nsRBNS): 25 mM Tris pH 7.5, 150 mM KCl, 3 mM MgCl2, 0.01% Triton X-100, 500 ug/ml BSA, 20 U/ml SUPERase-In, 4 C; UNK is unkempt and MSI1 is Musashi-1; names of the RNAs are library labels; protein concentration not given here; high values mean tight binding.
In turn, B1 gave a binding signal of 0.417 enrichment R.
To B2 belongs 0.441 enrichment R; to B3, 0.678 enrichment R; to B4, 0.598 enrichment R.
As for B5, the binding signal is 1.16 enrichment R.
Regarding B6, the binding signal was 0.554 enrichment R.
